From the supplement of paper PMC11417369
The other results are listed elsewhere or left out.

These sequences were tested on PF3D7_0420300 AP2 domain 1 (GST-tagged) (assay: gcPBM binding intensity (ln(normalized median fluorescence intensity)); higher = stronger DNA binding).
Summary of the method: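 GST-tagged P. falciparum DNA-binding domains, expressed in E. coli (about 25 μg on average), were applied for 1 h to an Agilent 4 × 180k array of primer-extended double-stranded 36-bp intergenic genomic probes plus negative controls. The binding buffer was 1× PBS with 1% milk, 0.2 mg/ml BSA, 0.5% salmon testes DNA and 0.03% Triton X-100. Bound protein was detected with Alexa488 anti-GST antibody and scanned at 488 nm. Binding intensity is the highest Masliner-normalised natural-log median intensity across replicate spots of either probe orientation.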
In the case of GAAATGAACAAGTGGGTGCGTATTAATTACATATTA, the “gcPBM binding intensity (ln)” value is reported as 9.46.
With “AAACTCTCTTATATTAAACACACATATATATATGTA [CACACA_site8865]” the “gcPBM binding intensity (ln)” value was 9.35.
For “CCTTTATTAAATAAATGTACATATTTTTGTGTTCTT [XGTACX_site2052]”, the “gcPBM binding intensity (ln)” value was 9.4.
With “AAAAACTTTTCAAGTAGTACCATATCTACAATAGTA [XGTACX_site8927]” the “gcPBM binding intensity (ln)” value was 9.11.
In the case of “AAACAAAAGATATATACACACTAAACATAAAAAAAA [CACACA_site6161]”, the “gcPBM binding intensity (ln)” value is reported as 9.71.
In the case of “GTTGGTAGGATGTATGGTACACGTAGTATTTTTCTT [XGTACX_site2]”, the “gcPBM binding intensity (ln)” value is reported as 9.59.
“AATAAAAATAAAATTGTATATTTTAAATGAAAATAA [CACACA_negctrl_site898]” was tested, and the “gcPBM binding intensity (ln)” value was 9.16.
For “CAAATTGGGAAATTTTGTACATATAATAAGGATACC [XGTACX_site7728]”, the “gcPBM binding intensity (ln)” value was 9.28.
For “GATAATGAATGATGCACACTAAAAATATTCTACAAC [CACACA_site3622]”, the “gcPBM binding intensity (ln)” value was 9.61.
In the case of “CCGTATATTTTATATAGTACTCATCATATATTTTTA [XGTACX_site5560]”, the “gcPBM binding intensity (ln)” value is reported as 9.23.
For “ACATATGAAAAATATGCATGCAAATATTATTTAACA [TGCATGCA_site802]”, the “gcPBM binding intensity (ln)” value was 9.25.
For “TATGTATGTTAGTGTGCACACATAAATATTATATAT [CACACA_site9121]”, the “gcPBM binding intensity (ln)” value was 9.69.
“TTTTTAAAATTTTTAAAAATATTATGTTAAATATAT [CACACA_negctrl_site415]” was tested, and the “gcPBM binding intensity (ln)” value was 8.86.
“ATATATATGTATTTATGTACATATTATTTTTCTTAA [XGTACX_site8169]” was tested, and the “gcPBM binding intensity (ln)” value was 9.18.
For “AAAAAAAAAAAAATCTCACACATAAAGAGATTATGA [CACACA_site4408]”, the “gcPBM binding intensity (ln)” value was 9.
“TTGAAAGAAAATAAAATAAAATAAAATAAAATAAAA [CACACA_negctrl_site859]” was tested, and the “gcPBM binding intensity (ln)” value was 8.88.
With “AATAAATAAAAATATATATATATAATATACATGTGT [TGCATGCA_negctrl_site369]” the “gcPBM binding intensity (ln)” value was 9.47.
For “GGATGTATTTATATGTGTATGTGTTTGGAAATATGT [XGTACX_negctrl_site99]”, the “gcPBM binding intensity (ln)” value was 9.61.
In the case of “AAAATTATATATTATAGTACATAAAATTTTGATATA [XGTACX_site994]”, the “gcPBM binding intensity (ln)” value is reported as 9.12.
In the case of “TTAGTTATTATAATTTGTACACAAATGGTAAAGTAT [XGTACX_site2343]”, the “gcPBM binding intensity (ln)” value is reported as 9.19.
“TTTGTACCGGCATTTTTTTTTTCTTTTTTTTTCCAA [XGTACX_negctrl_site323]” was tested, and the “gcPBM binding intensity (ln)” value was 9.51.
“TATTAAAAATGTTAAGTGCAAAAATAAAAATTGTGG [GTGCAC_site9854]” was tested, and the “gcPBM binding intensity (ln)” value was 9.29.
For “TACATGAATATATAAAGAAAAAAAAAAAAACACACA [XGTACX_negctrl_site350]”, the “gcPBM binding intensity (ln)” value was 9.71.
For “TATAAATTATATATTTGTACGTATATCACATATATA [XGTACX_site7053]”, the “gcPBM binding intensity (ln)” value was 9.16.
